The text below walks through data of patent publication US20250270341A1 (Alector, published 2025).

By Kd is commonly meant the free concentration of one partner at which half of the binding sites on the other are occupied at equilibrium, for simple one-to-one binding.

The chains are these.
T1: human CD98hc endogenously expressed on HCMEC/D3 cells (human)
T1 construct: human brain endothelial cell line
T1 chain: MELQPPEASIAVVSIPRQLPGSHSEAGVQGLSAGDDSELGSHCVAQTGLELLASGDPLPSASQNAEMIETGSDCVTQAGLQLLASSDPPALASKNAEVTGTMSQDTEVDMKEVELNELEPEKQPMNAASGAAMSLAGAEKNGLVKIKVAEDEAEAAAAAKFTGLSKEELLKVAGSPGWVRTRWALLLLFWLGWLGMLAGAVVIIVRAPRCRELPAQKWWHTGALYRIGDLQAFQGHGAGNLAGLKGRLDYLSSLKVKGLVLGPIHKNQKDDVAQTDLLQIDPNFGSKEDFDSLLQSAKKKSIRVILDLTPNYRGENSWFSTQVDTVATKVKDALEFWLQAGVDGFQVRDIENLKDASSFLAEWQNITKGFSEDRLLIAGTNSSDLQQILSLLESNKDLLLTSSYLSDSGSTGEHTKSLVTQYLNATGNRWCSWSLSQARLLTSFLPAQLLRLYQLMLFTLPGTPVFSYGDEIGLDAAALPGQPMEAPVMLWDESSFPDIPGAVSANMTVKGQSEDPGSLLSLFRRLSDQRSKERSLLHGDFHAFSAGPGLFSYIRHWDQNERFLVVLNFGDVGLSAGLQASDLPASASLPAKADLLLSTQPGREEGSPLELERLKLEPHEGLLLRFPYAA

T2: Cyno CD98hc ECD Avi-His (cynomolgus macaque, UniProt P08195 105-529 (human entry))
T2 construct: biotinylated on the Avi tag where captured on streptavidin; also called Cyno CD98-AVI-His; Cyno CD98hc-AVI-His
T2 chain: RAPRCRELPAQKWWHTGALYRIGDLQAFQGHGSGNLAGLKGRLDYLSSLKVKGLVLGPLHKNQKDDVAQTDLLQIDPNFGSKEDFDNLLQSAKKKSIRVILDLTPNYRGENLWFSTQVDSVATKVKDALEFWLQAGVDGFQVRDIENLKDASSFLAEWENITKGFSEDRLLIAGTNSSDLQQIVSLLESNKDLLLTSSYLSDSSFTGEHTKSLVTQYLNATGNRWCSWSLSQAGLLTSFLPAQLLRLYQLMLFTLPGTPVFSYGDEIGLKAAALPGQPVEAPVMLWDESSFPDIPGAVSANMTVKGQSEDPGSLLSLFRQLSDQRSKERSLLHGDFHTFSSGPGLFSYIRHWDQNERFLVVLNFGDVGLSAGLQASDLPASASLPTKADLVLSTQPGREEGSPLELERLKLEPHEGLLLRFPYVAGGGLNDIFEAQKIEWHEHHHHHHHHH

T3: huCD98hc ECD Avi-His (human, UniProt P08195 105-529)
T3 construct: biotinylated on the Avi tag where captured on streptavidin; also called Human CD98-AVI-His; Human CD98hc-AVI-His
T3 sequence: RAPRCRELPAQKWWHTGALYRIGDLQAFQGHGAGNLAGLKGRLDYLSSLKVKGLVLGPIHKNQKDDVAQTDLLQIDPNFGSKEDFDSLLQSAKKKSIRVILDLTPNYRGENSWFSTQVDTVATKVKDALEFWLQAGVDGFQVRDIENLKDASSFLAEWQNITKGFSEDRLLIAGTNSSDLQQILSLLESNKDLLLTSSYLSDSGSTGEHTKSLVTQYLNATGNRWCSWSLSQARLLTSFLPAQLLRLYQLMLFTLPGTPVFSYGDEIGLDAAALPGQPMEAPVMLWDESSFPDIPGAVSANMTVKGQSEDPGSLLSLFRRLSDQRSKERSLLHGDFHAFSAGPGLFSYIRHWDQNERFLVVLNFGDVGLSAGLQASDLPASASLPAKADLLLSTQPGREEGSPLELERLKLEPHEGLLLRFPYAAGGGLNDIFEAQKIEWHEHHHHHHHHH

B1: CD98hc.03.002 (2+1 bispecific antibody) (bispecific antibody)
heavy 1: EVRLLESGGGLVQPGGSLRLSCAASGFTFSNYAMGWVRQAPGKGLEWVSAISGSGGSTYYADSVKGRFTTSRDDSKNALYLQMNSLRAEDTAVYYCARGGPGWYAADVWGQGTTVTVSSASTKGPSVFPLAPSSKSTSGGTAALGCLVKDYFPEPVTVSWNSGALTSGVHTFPAVLQSSGLYSLSSVVTVPSSSLGTQTYICNVNHKPSNTKVDKKV[here human IgG1 Fc with changes without letters]GGGGSGGGGSGGGGSDVQLVESGGGLVQPGGSRKLSCAASGFTFSTFGMHWVRQAPEKGLEWVAYISGGSTNIYYADTVKGRFTISRDNPKNTLFLQMTSLRSEDTAMYYCARETTLLATNFDYWGQGTTLTVSSGGSEGKSSGSGSESKSTGGSDIQMTQTTSSLSASLGDRVTISCRASQDISNYLNWYQQKPDGTVKLLIYYTSRLHSGVPSRFSGSGSGTDYSLTISNLEQEDIATYFCQQGSTLPRTFGGGTKLEIK
heavy 2: EVRLLESGGGLVQPGGSLRLSCAASGFTFSNYAMGWVRQAPGKGLEWVSAISGSGGSTYYADSVKGRFTTSRDDSKNALYLQMNSLRAEDTAVYYCARGGPGWYAADVWGQGTTVTVSS[here human IgG1 constant region with changes without letters]
light: DIQMTQSPSSLSASVGDRVTITCRASQSISSYLNWYQQKPGKAPKLLIYAASSLQSGVPSRFSGSGSGTDFTLTISSLQPEDFATYYCQQADLPAFAFGGGTKVEIKRTVAAPSVFIFPPSDEQLKSGTASVVCLLNNFYPREAKVQWKVDNALQSGNSQESVTEQDSKDSTYSLSSTLTLSKADYEKHKVYACEVTHQGLSSPVTKSFNRGEC
B2: CD98hc.04.064 (2+1 bispecific antibody) (bispecific antibody)
heavy 1: EVRLLESGGGLVQPGGSLRLSCAASGFTFSNYAMGWVRQAPGKGLEWVSAISGSGGSTYYADSVKGRFTTSRDDSKNALYLQMNSLRAEDTAVYYCARGGPGWYAADVWGQGTTVTVSSASTKGPSVFPLAPSSKSTSGGTAALGCLVKDYFPEPVTVSWNSGALTSGVHTFPAVLQSSGLYSLSSVVTVPSSSLGTQTYICNVNHKPSNTKVDKKV[here human IgG1 Fc with changes without letters]GGGGSGGGGSGGGGSQVQLQQPGAELVRPGASVKLSCKASGYTFTSYWMNWVRQRPGQGLEWIGLIDPSDSETHYNQMFKDRATLTVDKSSSTAYMQLSSLTSADPAVYYCARASYGKGYFDYWGQGTTLTVSSGGSEGKSSGSGSESKSTGGSDIVMTQSPSSLAMSVGQKVTMSCKSSQSLLNNINQKNYLAWYQQKPGQSPKLLVYFASTRESGVPDRFIGSGSGTDFTLTINTVQAEDLADYFCQQHYSSPFTFGGGTKLEIK
heavy 2: EVRLLESGGGLVQPGGSLRLSCAASGFTFSNYAMGWVRQAPGKGLEWVSAISGSGGSTYYADSVKGRFTTSRDDSKNALYLQMNSLRAEDTAVYYCARGGPGWYAADVWGQGTTVTVSS[here human IgG1 constant region with changes without letters]
light: B1 light
notes: also called mouse CD98hc.04.064
B3: CD98hc.03.010 (2+1 bispecific antibody) (bispecific antibody)
heavy 1: EVRLLESGGGLVQPGGSLRLSCAASGFTFSNYAMGWVRQAPGKGLEWVSAISGSGGSTYYADSVKGRFTTSRDDSKNALYLQMNSLRAEDTAVYYCARGGPGWYAADVWGQGTTVTVSSASTKGPSVFPLAPSSKSTSGGTAALGCLVKDYFPEPVTVSWNSGALTSGVHTFPAVLQSSGLYSLSSVVTVPSSSLGTQTYICNVNHKPSNTKVDKKV[here human IgG1 Fc with changes without letters]GGGGSGGGGSGGGGSEVQLQQSGTELVKPGASVKLSCTASGLDIKDTYLHWVKQRPEQGLEWIGKIDPANGNTKYNPKFQGKATITADTSSNTAYLQLSSLTSEDTAVHYCTTPYYSGSSYGDYWGQGTTLTVSSGGSEGKSSGSGSESKSTGGSQIVLTQSPAIMSASPGEKVTLTCSASSSVSSSYLYWYQQKPGSSPKLWIYSTSNLASGVPARFSGSGSGTSYSLTISSMEAEDAASYFCHQWSRYPLTFGAGTKLELK
heavy 2: EVRLLESGGGLVQPGGSLRLSCAASGFTFSNYAMGWVRQAPGKGLEWVSAISGSGGSTYYADSVKGRFTTSRDDSKNALYLQMNSLRAEDTAVYYCARGGPGWYAADVWGQGTTVTVSS[here human IgG1 constant region with changes without letters]
light: B1 light
B4: CD98hc.04.018 (2+1 bispecific antibody) (bispecific antibody)
heavy 1: EVRLLESGGGLVQPGGSLRLSCAASGFTFSNYAMGWVRQAPGKGLEWVSAISGSGGSTYYADSVKGRFTTSRDDSKNALYLQMNSLRAEDTAVYYCARGGPGWYAADVWGQGTTVTVSSASTKGPSVFPLAPSSKSTSGGTAALGCLVKDYFPEPVTVSWNSGALTSGVHTFPAVLQSSGLYSLSSVVTVPSSSLGTQTYICNVNHKPSNTKVDKKV[here human IgG1 Fc with changes without letters]GGGGSGGGGSGGGGSQIQLVQSGPELKKPGETVKISCKASGYTFRNYGMNWVKQAPGKGLKWMGWINTYTGEPTYAEDFKGRFAFSLETSASTAYLQINKLKNEDEATYFCARGEAHWYFDVWGAGTTVTVSSGGSEGKSSGSGSESKSTGGSQIVLTQSPAIMSASLGERVTMTCTASSSVSSSYLYWYQQKPGSSPKLWIYSIFNLASGVPARFSGSGSGTSYSLTISSMEAEDAATYYCHQYHRSPPTFGGGTKLEIK
heavy 2: EVRLLESGGGLVQPGGSLRLSCAASGFTFSNYAMGWVRQAPGKGLEWVSAISGSGGSTYYADSVKGRFTTSRDDSKNALYLQMNSLRAEDTAVYYCARGGPGWYAADVWGQGTTVTVSS[here human IgG1 constant region with changes without letters]
light: B1 light
B5: CD98hc.03.004 (2+1 bispecific antibody) (bispecific antibody)
heavy 1: EVRLLESGGGLVQPGGSLRLSCAASGFTFSNYAMGWVRQAPGKGLEWVSAISGSGGSTYYADSVKGRFTTSRDDSKNALYLQMNSLRAEDTAVYYCARGGPGWYAADVWGQGTTVTVSSASTKGPSVFPLAPSSKSTSGGTAALGCLVKDYFPEPVTVSWNSGALTSGVHTFPAVLQSSGLYSLSSVVTVPSSSLGTQTYICNVNHKPSNTKVDKKV[here human IgG1 Fc with changes without letters]GGGGSGGGGSGGGGSDVQLQESGPGLVKPSQSLSLTCTVTGYSITNNYAWNWIRRFPGNKLEWMAYISYSGYTSYNPSLKSRISITRDTSKNQFFLQLNSVTTEDTATYYCTGYFYYYGGGSFDYWGQGTTLTVSSGGSEGKSSGSGSESKSTGGSQAVVTQESALTTSPGETVTLTCRSSTGAVTTSNFANWVQEKPDHLFTGLIRGSNNRAPGVPARFSGSLIGDKAALTITGARTEDEAIYFCALWYSDHWVFGGGTKLTVL
heavy 2: EVRLLESGGGLVQPGGSLRLSCAASGFTFSNYAMGWVRQAPGKGLEWVSAISGSGGSTYYADSVKGRFTTSRDDSKNALYLQMNSLRAEDTAVYYCARGGPGWYAADVWGQGTTVTVSS[here human IgG1 constant region with changes without letters]
light: B1 light

The target in the first assay is T1, human CD98hc endogenously expressed on …. Kind of assay: FACS, 5 ug/ml. On the procedure:
To determine binding retention of 2+1 anti-CD98hc bispecific antibodies by FACS, antibodies were evaluated for binding to HCMEC/D3 cells (a cell line derived from human brain endothelial cells), overexpressing human and mouse CD98hc CHO cell lines, and parental CHO cells for non-specific binding. Cells were seeded in tissue culture plates (50,000 cells/well) and washed and resuspended in FACS buffer (PBS+2% BSA+1 mM EDTA). The 2+1 anti-CD98hc bispecific antibodies were then incubated with cells (5 μg/ml, 1 hr, on ice) and washed twice with FACS buffer. Cells were then incubated with allophycocyanin conjugated anti-mouse secondary antibody (Jackson Immunoresearch) (1:1000, 30 min, on ice) and then washed twice with FACS buffer. Next, cells were resuspended in FACS buffer supplemented with 0.5% propidium iodide (Thermo Fisher). Anti-CD98hc binding was then analyzed on the iQue flow cytometer (IntelliCyt) by measuring the Mean Fluorescent Intensity (MFI). FACS data are summarized below in Table 17, shown as MFI fold-change relative to isotype hIgG1 control.
For B1, the “MFI fold-change relative to isotype hIgG1” value amounted to 14.5.

Take B2: the “MFI fold-change relative to isotype hIgG1” value was 108.

Take B3: the “MFI fold-change relative to isotype hIgG1” value came out at 6.9.

On to B4, for which the “MFI fold-change relative to isotype hIgG1” value came out at 53.4.

Turning to B5, the “MFI fold-change relative to isotype hIgG1” value is 128.

The next assay addresses T2, Cyno CD98hc ECD Avi-His. Kind of assay: SPR, Carterra LSA, antibody immobilized.
The molecule B1 showed a Kd of 31 nM.

As for B3, the affinity, expressed as Kd, was 80 nM.

As for B4, the Kd came to 29 nM.

B5 yielded a Kd of 48 nM.

The next assay concerns the target T3, huCD98hc ECD Avi-His. Kind of assay: SPR, Carterra LSA, antibody immobilized. In general terms: Surface plasmon resonance follows binding to a sensor surface in real time, without labels.
In turn, B1 registered a Kd of 19 nM. This lies in the double-digit nanomolar range.

B2 came in with a Kd of 26 nM. The Kd values of the last two molecules are within 1.5-fold of each other.

B3 yielded a Kd of 41 nM. Against the preceding molecule, the Kd is about 1.6-fold higher.

Take B5: the Kd came out at 9.1 nM. This Kd is about 4.5-fold lower than that of the molecule before.
